In article PMC2788703:
These are yes or no findings as the source states them, for the method shown. Binding seen in cells or lysates may run through a third protein. Some results given as binding are weak or reduced against the parent protein; the word gives no strength.

Sequences of proteins named here, by UniProt entry; tags and fusion partners are left off. A change or cut given only in a name is not applied to a line headed by its entry. Residues count along the entry.
UniProt Q9Y4L5: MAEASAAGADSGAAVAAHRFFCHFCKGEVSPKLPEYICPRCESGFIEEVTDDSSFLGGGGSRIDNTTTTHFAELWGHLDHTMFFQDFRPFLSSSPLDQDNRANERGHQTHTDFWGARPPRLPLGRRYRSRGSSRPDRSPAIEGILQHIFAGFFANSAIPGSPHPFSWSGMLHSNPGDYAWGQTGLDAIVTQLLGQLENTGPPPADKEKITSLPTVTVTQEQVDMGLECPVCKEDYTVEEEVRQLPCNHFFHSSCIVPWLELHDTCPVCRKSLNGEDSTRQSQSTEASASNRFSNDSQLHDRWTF
HA-BCA2ΔRING (1–227 aa), RING domain deleted mutant: residues 1-227 of Q9Y4L5
HA-BCA2ΔC (1–147 aa), C-terminal truncation mutant: residues 1-147 of Q9Y4L5
HA-BCA2ΔN (148–305 aa), N-terminal truncation mutant: residues 148-304 of Q9Y4L5
UniProt Q10589, residues 1-161: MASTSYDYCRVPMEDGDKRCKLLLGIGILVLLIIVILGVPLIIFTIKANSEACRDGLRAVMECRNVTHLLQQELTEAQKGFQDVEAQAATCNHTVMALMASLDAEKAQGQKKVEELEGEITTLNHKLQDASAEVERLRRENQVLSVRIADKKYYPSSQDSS

Tests used:
[1] = molecular target: HA-BCA2ΔRING (1–227 aa), RING domain deleted mutant (human) (UniProt Q9Y4L5); experiment: co-IP; 293T cells co-expressing Myc-tetherin (FL or Δ1–20) and HA-BCA2 (FL or deletion mutants); lysates incubated with anti-HA affinity gel; immunoblot with HA or Myc antibodies
[2] = molecular target: HA-BCA2ΔC (1–147 aa), C-terminal truncation mutant (human) (UniProt Q9Y4L5); experiment: as above
[3] = molecular target: N-terminal HA-tagged BCA2 (human) (UniProt Q9Y4L5); experiment: as above
[4] = molecular target: HA-BCA2ΔN (148–305 aa), N-terminal truncation mutant (human) (UniProt Q9Y4L5); experiment: as above
[5] = molecular target: GST-BCA2 (recombinant GST-tagged BCA2) (human) (UniProt Q9Y4L5); experiment: pull-down; glutathione beads coupled with purified GST-BCA2 incubated with lysates of 293T cells expressing Myc-tetherin (FL or Δ1–20); immunoblot with Myc antibody; only the target purified
[6] = molecular target: BCA2 (initial screening test, construct not stated) (human) (UniProt Q9Y4L5); experiment: co-IP + pull-down; initial screening test of approximately 60 Rab family proteins against tetherin or HIV-1 Gag; data not shown

Substance	binding [1]	binding [2]	binding [3]	binding [4]	binding [5]	binding [6]
N-terminal Myc-epitope-tagged wild-type tetherin (from UniProt Q10589 1-161)	binds	no binding	binds	binds	binds	
tetherin (initial screening test, construct not stated) (from UniProt Q10589 1-161)						binds
